# The campaign covered roughly 110,000 compounds. About 230 (0.21%) showed an effect of 50% or more. This is one part of the list.
# Biological target: DPAP1 (Plasmodium falciparum, UniProt Q8IIJ9)
# Test: primary screen, percent inhibition; read by cleavage of a fluorogenic dipeptide substrate; higher = more effect of the substance
# Parameters: species or system P. falciparum D10 trophozoite lysates; single well
# 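Further: 30 min substrate incubation versus DMSO and 10 µM JCP410 controls.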
# Sequence of DPAP1 (Q8IIJ9 whole entry, looked up): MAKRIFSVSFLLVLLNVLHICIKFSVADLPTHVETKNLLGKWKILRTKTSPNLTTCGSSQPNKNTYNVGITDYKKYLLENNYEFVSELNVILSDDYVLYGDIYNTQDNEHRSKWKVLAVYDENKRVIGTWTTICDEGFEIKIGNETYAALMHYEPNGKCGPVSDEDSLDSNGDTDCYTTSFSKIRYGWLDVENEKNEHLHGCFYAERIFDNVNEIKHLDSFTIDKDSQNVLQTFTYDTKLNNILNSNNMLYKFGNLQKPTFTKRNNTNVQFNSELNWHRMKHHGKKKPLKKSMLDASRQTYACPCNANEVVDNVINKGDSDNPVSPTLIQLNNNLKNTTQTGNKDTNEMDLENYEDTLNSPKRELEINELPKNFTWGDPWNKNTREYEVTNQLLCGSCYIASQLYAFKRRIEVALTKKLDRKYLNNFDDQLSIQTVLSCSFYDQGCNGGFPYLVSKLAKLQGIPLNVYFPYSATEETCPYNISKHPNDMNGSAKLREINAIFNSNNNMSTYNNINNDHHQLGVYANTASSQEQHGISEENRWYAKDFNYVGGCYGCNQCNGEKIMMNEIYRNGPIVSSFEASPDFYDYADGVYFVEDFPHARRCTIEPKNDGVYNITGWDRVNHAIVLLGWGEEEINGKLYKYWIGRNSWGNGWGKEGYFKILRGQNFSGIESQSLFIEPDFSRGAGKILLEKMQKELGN
row,Structure (SMILES),% Inhibition @ 10 uM [%]
1,CCCCC(NS(=O)(=O)c1ccc(C)cc1)C(=O)O (stereo not shown),-8.12
2,CC1(C)CC(=O)C2=C(C1)N(c1nc[nH]n1)C(N)=C(C#N)C2c1cccc(Cl)c1 (stereo not shown),5.48
3,CSc1ccc(/C=C2\C(=N)N3N=C(N4CCCCC4)SC3=NC2=O)cc1,-1.66
4,CCCOc1ccc(C2C(C(=O)OC)=CN(CC3CCCO3)C=C2C(=O)OC)cc1 (stereo not shown),-7.23
5,CC(C)C[C@H](NC(=O)c1ccc(NC(=O)OCc2ccccn2)cc1)C(=O)NCC#N,0.744
6,Cc1c(C(=O)NCCN(C)C)oc2c1-c1nn(Cc3ccc(Cl)cc3)cc1CC2,-9.32
7,COc1cccc(CN2CCN(Cc3ccc(F)cc3)CC2)c1,0.214
8,O=C(NCc1ccccc1Cl)C1CCC(CNS(=O)(=O)c2cccc3nsnc23)CC1 (stereo not shown),-2.25
9,CC1CCC(C(=O)NC(C(=O)N2CCN(Cc3ccccc3)CC2)C(C)C)CC1 (stereo not shown),-1.73
10,Cc1ccc(-c2csc(NC(=O)c3cc4ccccc4o3)n2)cc1,3.79
11,CCN(C)CCc1c[nH]c2ccccc12,0.76
12,CC1CCCC(NC(=O)CN2C(=O)CSc3ncccc32)C1C (stereo not shown),-4.15
13,Cc1nc(C)c(-c2ccccc2)c(O)n1,6.52
14,CN(Cc1ccccc1)C(=O)Cn1ncc2c3ccccc3n(Cc3ccc(F)cc3)c2c1=O,-3.35
15,CCNC(=O)c1c(NC(=O)c2nc(SC)ncc2Cl)sc2c1CCCC2,2.19
16,CC(=O)N(CCN(Cc1ccccc1)C(C)=O)Cc1ccccc1,0.505
17,CCN1CCC(NCCCOC)CC1,3.19
18,COCCCn1c(CCC(=O)O)ccc1-c1ccc(C)cc1,-6.64
19,CCN(CC)CCN(C)C1CCCCCCC1,-9.93
20,Cc1ccc(S(=O)(=O)c2nnn3c2nc(N2CCOCC2)c2sccc23)cc1,2.72
21,N#Cc1ccc(-c2ccc(F)cc2)nc1SCC(=O)NC1CC1,-7.4
22,COc1cc(C(=O)N2CCN(c3ccc(C)c(Cl)c3)CC2)cc(OC)c1OC,-4.52
23,O=C(CS(=O)(=O)c1ccccc1)N1CCCCCC1,5.42
24,Cn1c(=O)c(C(=O)NC(C)(C)C)c(O)c2ccccc21,7.16
25,CCc1nnc(NC(=O)c2ccc(OC)c(S(=O)(=O)N3CC(c4ccccc4)CC3=O)c2)s1 (stereo not shown),5.76
26,CCn1c(NCc2ccccc2F)nc2ccccc21,-9.25

row,Structure (SMILES),% Inhibition @ 10 uM [%]
1,CCCCN1C(=O)c2ccc(F)cc2C1=O,-0.712
2,Cc1ccsc1CNC1C2CC3CC(C2)CC1C3 (stereo not shown),-0.759
3,Cn1c(NCc2ccco2)nc2ccccc21,-0.872
4,O=C(N/C(=C\c1ccco1)C(=O)N1CCCC1CO)c1ccccc1 (stereo not shown),-2.8
5,Cc1c(C(=O)Nc2nccs2)oc2ccccc12,-4.87
6,COCCN1C(=O)c2ccccc2C(C(=O)NCc2ccccc2OC)C1c1ccc(F)cc1 (stereo not shown),2.84
7,O=C1C2C3CCC(C3)C2C(=O)N1CNc1cccc(Cl)c1 (stereo not shown),-3.49
8,CCCN(CCC)CC/N=c1/c(-c2ccccc2)c(O)c1=O,4.36
9,COc1cc(C2C(C(=O)Nc3ccccn3)=C(C)Nc3nnnn32)ccc1OCc1ccccc1 (stereo not shown),-2.13
10,CCOC(=O)N1CCC(N2CCSCC2)CC1,-3.6
11,COc1ccc(N(CN2C(=O)c3cc(Cl)c(Cl)cc3C2=O)C(C)=O)cc1,-2.98
12,COc1cccc(NC=C2C(=O)N(C)C(=O)N(C)C2=O)c1,-6.69
13,CCCSc1nc(=O)c2c(n1C)NC(=O)CC2c1ccc(O)cc1OC (stereo not shown),-4.71
14,Cc1ccc2c(c1)C1CN(C)CCC1N2C(=O)Nc1ccccc1 (stereo not shown),0.708
15,O=C(NCc1ccc(F)cc1)c1cc2ccc3cccnc3c2[nH]1,-2.72
16,COc1cc(C(=O)NCCC(=O)NCCCN2CCCCC2)cc(OC)c1OC,4.36
17,O=C1NC(=O)/C(=C/c2cc3c(cc2Br)OCO3)N1,-3.75
18,NC(=O)CSc1nc(SCC(N)=O)c2c3c(sc2n1)CCCC3,-3.05
19,Cc1nnc2c(NCC(C)c3ccccc3)nc3ccc(C(=O)c4ccccc4)cc3n12 (stereo not shown),-6.29
20,Cc1nnc(C)n1/N=C\c1cccnc1,4.67
21,Cn1c(=O)c2c(ncn2CCOC2c3ccccc3CCc3ccccc32)n(C)c1=O,1.89
22,Cc1ccccc1CSc1nc2cccnc2[nH]1,6.08
23,CN(CCC#N)C(=O)Cn1nc(Cc2ccncc2)c2ccccc2c1=O,6.55
24,CC1=C(C(=O)OC(C)C)C(c2cccc(Cl)c2Cl)CC(=O)N1 (stereo not shown),1.76
25,CC(C)CNCc1noc2c1CSc1ccccc1-2,0.231
26,COc1ccc(-n2c(C)cc(C)nc2=O)cc1,-1.63

row,Structure (SMILES),% Inhibition @ 10 uM [%]
1,CCC1CCCCN1CCCNC(=O)c1cc2c(-c3ccccc3F)nn(C)c2s1 (stereo not shown),2
2,O=[N+]([O-])c1ccc(N2CCN(C3C4CC5CC(C4)CC3C5)CC2)cc1 (stereo not shown),-4.75
3,O=C(CSCc1ccc(C(=O)O)cc1)Nc1ccc2ccccc2c1,0.983
4,O=C(COc1ccc(Cl)cc1)NCc1nnc(SCC(=O)NC2CCCC2)o1,-7.46
5,O=C(c1nnc(Cc2ccc(F)cc2Cl)o1)N1CCN(c2ccccn2)CC1,-1.14
6,COc1ccc(-c2cc(C(F)(F)F)n3nc(C(=O)NC4CCCCC4)cc3n2)cc1,-5.03
7,CCCCNC(=O)CCSc1ccc(C)cc1,-2.98
8,COc1ccc(OC)c(CNCc2c(C(=O)O)[nH]c3cc(OC)ccc23)c1,-1.53
9,Cc1oc(-c2ccc(Cl)cc2)nc1CS(=O)CC(=O)NCCc1ccc(Cl)cc1 (stereo not shown),2.37
10,Cc1nc2ccc(S(=O)(=O)NC(CC(C)C)C(=O)N3CCN(C4CCCCC4)CC3)cc2s1 (stereo not shown),2.12
11,CCOc1ccc(C(=O)Nc2ccc(N3CCOCC3)cc2)cc1,-0.251
12,CC1NC(=O)NC1CCCCC(=O)O (stereo not shown),2.33
13,CCC(=O)Nc1ccc2c(c1)c1ccccc1n2CC,0.632
14,NC(=O)c1c(NC(=O)c2ccc(S(=O)(=O)N3CCCCC3)cc2)sc2c1CCCC2,-1.88
15,Cc1ccccc1Cn1c2ccccc2c2cnn(CC(=O)N3CCOCC3)c(=O)c21,4.95
16,CCC(=O)NS(=O)(=O)c1cccnc1Nc1cccc(Cl)c1Cl,-5.6
17,Cc1cc(-c2ccccc2)n2nc(C)c(-c3ccc(Cl)cc3)c2n1,0.0538
18,O=S(=O)(NC1CCCCCC1)c1ccc(F)cc1,-8.75
19,NC(=O)c1sc2nccc(Nc3ccccc3)c2c1N,-4.23
20,CCOc1cccc(N2C(=O)CC(N3CCN(C45CC6CC(CC(C6)C4)C5)CC3)C2=O)c1 (stereo not shown),-3.41
21,COc1ccccc1-n1cnc2cc(NS(=O)(=O)c3ccc(C)cc3)ccc21,-6.25
22,CCC(C)NC(=O)c1csc2c1CCCC2 (stereo not shown),-1.44
23,Cc1cc(C)cc(NC(=O)CN(Cc2ccccc2)S(=O)(=O)c2ccc(F)cc2)c1,3.53
24,CC(C)c1ccc(CN(CCCN(C)C)CCCN(C)C)cc1,2.7
25,COc1ccc(Br)cc1C1CC(=O)NC2=C1C(=O)CC(C)(C)C2 (stereo not shown),-5.2
26,COCCCNC(=O)c1c(O)nc2c(c1O)CCCC2,-0.458

row,Structure (SMILES),% Inhibition @ 10 uM [%]
1,Cc1nnc(N2CCC(C(=O)NC3CCC(C)CC3)CC2)c2nn(-c3ccccc3)c(C)c12 (stereo not shown),1.11
2,CC1CC(Nc2ccccc2)c2ccccc2N1 (stereo not shown),-3.79
3,O=C(c1ccccc1)c1cccn1CC(=O)N1CCOCC1,-0.522
4,Oc1nc(SCc2ccccc2)nc2c1cnn2-c1ccccc1,-3.35
5,OCC1CCCN(CC2CC=CCC2)C1 (stereo not shown),-2.95
6,CCCCNC(=O)CSc1nc2nc(C)c(Cc3ccccc3Cl)c(C)n2n1,15.1
7,CCc1nc2c(sc3nc(C)cc(C)c32)c(=O)o1,-1.11
8,CCN(CC)c1ccc(C2C(C#N)=C(C)N=C3CC(c4ccccc4)CC(O)=C32)cc1 (stereo not shown),1.01
9,COc1cc(CNC(C)(C)CO)cc(Br)c1OCc1ccc(Cl)cc1,-1.96
10,CN1C(=O)CC(N2CCN(c3ccc(Cl)cc3)CC2)C1=O (stereo not shown),0.912
11,CCN(CC)c1ccc(NC(=O)C(C)C)c(C)c1,0.686
12,O=C(NC(c1ccccc1)c1ccccc1)c1ccc(Br)o1,-5.26
13,CCOC(=O)N1CCN(C(=O)NC2(C(F)(F)F)Oc3ccccc3O2)CC1,5.11
14,Cc1cc(N2CCN(C)CC2)n2nc(C)c(-c3ccc(Cl)cc3)c2n1,2.35
15,Cc1ccc(C)c(OCc2nc3ccccc3[nH]2)c1,1.88
16,COc1ccc(/C=N/n2c(N(C(C)=O)C(C)=O)nc(-c3ccccc3)c2-c2ccccc2)cc1,2.79
17,COc1ccc(CCNC(=O)Nc2cn(CC(C)C)c(=O)c3ccccc23)cc1OC,-0.171
18,Cc1c(C(=O)NC2CC2)oc2c1-c1nn(Cc3cccc(Cl)c3)cc1CC2,-0.0401
19,COc1cccc(OCCSc2nc3c(N)ncnc3[nH]2)c1,-7.94
20,COc1ccc(C2=N/C(=C/C=C/c3ccccc3)C(=O)O2)cc1Br,3.42
21,CCC(=O)NC(Cc1ccccc1)c1ccc2c(c1)OCCCO2 (stereo not shown),0.475
22,COc1ccccc1-c1ccc(C(=O)N[C@@H](CC(C)C)C(=O)NCC#N)cn1,-0.207
23,CC(=O)Nc1ccc(OCCO)c(OCCO)c1,-3.92
24,O=C1Nc2ccccc2/C1=C/C(=O)c1ccc(F)cc1,-1.5
25,CC(C)(C)c1ccc(S(=O)(=O)N2CCCCC2C(=O)O)cc1 (stereo not shown),-2.49

# From article PMC6919601, “Identification of Plasmodium dipeptidyl aminopeptidase allosteric inhibitors by high throughput screening” (PLoS ONE, 2019)
